Data: patent US9872922B2, “Anti-EFNA4 antibody-drug conjugates” (PFIZER, INC., priority 2013, dated 2018)

Key:
MEC1 = assay: Flow cytometry antibody binding (MCF), MEC1; details: 10 μg/ml antibody; MEC1, B-CLL
Protocol: (§1) Binding of humanized anti-EFNA4 antibodies huE22 and huE47 was assessed on EFNA4 expressing cells by flow cytometry. Adherent cells were dissociated using TrpLE Express (GIBCO cat #12604-021), neutralized with cell culture media and counted. Cells were plated into a U-bottom 96-well plate (BD Falcon cat #353077) with 5×10e5 cells/100 μL media/well. The plate was centrifuged at 300×g, 5 minutes, 4° C. to pellet cells and the supernatant was discarded. All reagents were kept on ice for the following steps. Each pellet was resuspended in 100 μL primary humanized anti-EFNA4 antibody (huE22 or huE47) or negative control antibody at 10 μg/mL in 3% BSA in PBS. The plate was incubated on ice for 30 minutes. The plate was centrifuged and the cell pellets were washed in 200 μL 3% BSA in PBS. Each cell pellet was resuspended in 100 μL of R-phycoerythrin (PE)-conjugated goat anti-human IgG Fc fragment (Jackson ImmunoResearch cat #109-115-098) that had been diluted 1:50 in 3% BSA in PBS. The plate was incubated on ice for 30 minutes. […] The samples were analyzed by flow cytometry using 5 μL 7AAD (B-D Pharmingen cat #51-68981E) per sample as a viability stain.
(§2) Endogenous EFNA4 expressing cancer cell lines were analyzed: Breast cell lines BT-483, HCC202 and MX-1, Chronic Lymphocytic Leukemia (CLL) cell line MEC1 and mantle cell lymphoma (MCL) cell line Z138.

BT-483 = assay: Flow cytometry antibody binding (MCF), BT-483; details: 10 μg/ml antibody; BT-483, Breast
Protocol: as §1, §2

Ephrin-A5 (EFNA5) = target: T1, Ephrin-A5 (EFNA5) (Homo sapiens, UniProt P52803); assay: Direct ELISA binding specificity, Ephrin-A5; details: biotin-labeled antibody
T1 construct: purchased R&D
T1 sequence (P52803 21-203): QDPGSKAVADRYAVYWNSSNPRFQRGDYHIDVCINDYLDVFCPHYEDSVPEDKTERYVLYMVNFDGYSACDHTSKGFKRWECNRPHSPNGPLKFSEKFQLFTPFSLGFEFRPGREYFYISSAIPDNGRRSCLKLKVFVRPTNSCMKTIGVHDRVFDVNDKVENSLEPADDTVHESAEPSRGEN
Protocol: Further properties were determined using ELISA to analyze the binding specificity of anti-EFNA4 antibodies huE22 and huE47 to Ephrin-A4 (EFNA4) along with homologous family members Ephrin-A1 (EFNA1) and Ephrin-A3 (EFNA3). Antibody binding was determined by direct ELISA with Ephrin-A1-His, Ephrin-A3-huFc, Ephrin-A4-huFc and Ephrin-A5-huFc (all from R&D) coated on BioOne Microlon (Greiner) plates in PBS overnight at 4° C. Biotin-labeled huE22 and huE47 were incubated on the plate for 2.5 hours at room temperature and Streptavidin HRP was used to develop signal from biotin labeled antibody in the absence of interfering human IgG signal.

[1] = tested on: Breast-31 (BR31) TNBC PDX; assay: In vivo efficacy, BR31 TNBC PDX; set-up: species or system NOD/SCID mice (human tumor PDX); details: for Regression (TTP, Days): BR31 PDX
[2] = tested on: Breast-56 (BR56) TNBC PDX; assay: In vivo efficacy, BR56 TNBC PDX; set-up: species or system NOD/SCID mice (human tumor PDX)
BR25 = assay: In vivo efficacy, BR25 TNBC Claudin-low tumor model; set-up: species or system mice; details: 0.27 mg/kg

B1: huE22 (antibody)
heavy: QVQLVQSGAEVKKPGASVKVSCKASGYTFTGYYIHWVRQAPGQGLEWMGWIYPGNFNTKYNERFKGRVTMTTDTSTSTAYMELRSLRSDDTAVYYCAREDGSPYYAMDYWGQGTSVTVSS[human IgG1 constant region omitted here]
VL: DIVMTQTPLSLSVTPGQPASISCRSSQSLVHSNGNTFLYWYLQKPGQSPQLLIYRVSNRFSGVPDRFSGSGSGTDFTLKISRVEAEDVGVYYCFQATHVPWTFGGGTKVEIK
Mean Channel Fluorescent (MCF) (MEC1): 24 | Mean Channel Fluorescent (MCF) (BT-483): 17.7 | binding to Ephrin-A5 (EFNA5) (Ephrin-A5 (EFNA5)): but not to EFNA1, EFNA3 or EFNA5

B2: huE22-AcBut-CM: huE22 conjugated via lysine residues to AcBut-N-acetyl-γ-calicheamicin dimethyl hydrazide (AcBut-CM) (conjugate)
heavy: B1 heavy
light: DIVMTQTPLSLSVTPGQPASISCRSSQSLVHSNGNTFLYWYLQKPGQSPQLLIYRVSNRFSGVPDRFSGSGSGTDFTLKISRVEAEDVGVYYCFQATHVPWTFGGGTKVEIKRTVAAPSVFIFPPSDEQLKSGTASVVCLLNNFYPREAKVQWKVDNALQSGNSQESVTEQDSKDSTYSLSSTLTLSKADYEKHKVYACEVTHQGLSSPVTKSFNRGEC
Regression (TTP, Days) ([1]; 0.09 mg/kg): Regression (56) Days | mean tumor volume ([1]; 0.09 mg/kg, Day 0): 165 ± 6 | mean tumor volume ([1]; 0.09 mg/kg, Day 7): 277 ± 18 | mean tumor volume ([1]; 0.09 mg/kg, Day 14): 201 ± 11 | mean tumor volume ([1]; 0.09 mg/kg, Day 21): 103 ± 12 | mean tumor volume ([1]; 0.09 mg/kg, Day 28): 64 ± 4 | mean tumor volume ([1]; 0.09 mg/kg, Day 44): 57 ± 15 | mean tumor volume ([1]; 0.09 mg/kg, Day 49): 82 ± 19 | mean tumor volume ([1]; 0.09 mg/kg, Day 56): 132 ± 32 | mean tumor volume ([1]; 0.09 mg/kg, Day 63): 206 ± 44 | mean tumor volume ([1]; 0.09 mg/kg, Day 71): 338 ± 73 | mean tumor volume ([1]; 0.09 mg/kg, Day 78): 414 ± 74 | mean tumor volume ([1]; 0.09 mg/kg, Day 85): 589 ± 121 | mean tumor volume ([1]; 0.09 mg/kg, Day 91): 741 ± 157 | mean tumor volume ([1]; 0.09 mg/kg, Day 98): 1178 ± 271 | Regression (TTP, Days) ([1]; 0.27 mg/kg): Regression (91) Days | mean tumor volume ([1]; 0.27 mg/kg, Day 0): 149 ± 13 | mean tumor volume ([1]; 0.27 mg/kg, Day 7): 137 ± 11 | mean tumor volume ([1]; 0.27 mg/kg, Day 14): 59 ± 8 | mean tumor volume ([1]; 0.27 mg/kg, Day 21): 30 ± 9 | mean tumor volume ([1]; 0.27 mg/kg, Day 28): 11 ± 7 | mean tumor volume ([1]; 0.27 mg/kg, Day 36): 17 ± 9 | mean tumor volume ([1]; 0.27 mg/kg, Day 44): 0 ± 0 | mean tumor volume ([1]; 0.27 mg/kg, Day 49): 0 ± 0 | mean tumor volume ([1]; 0.27 mg/kg, Day 56): 0 ± 0 | mean tumor volume ([1]; 0.27 mg/kg, Day 63): 0 ± 0 | mean tumor volume ([1]; 0.27 mg/kg, Day 71): 0 ± 0 | mean tumor volume ([1]; 0.27 mg/kg, Day 78): 0 ± 0 | mean tumor volume ([1]; 0.27 mg/kg, Day 85): 12 ± 8 | mean tumor volume ([1]; 0.27 mg/kg, Day 91): 20 ± 13 | mean tumor volume ([1]; 0.27 mg/kg, Day 98): 26 ± 17 | mean tumor volume ([1]; 0.27 mg/kg, Day 105): 32 ± 21 | mean tumor volume ([1]; 0.27 mg/kg, Day 112): 29 ± 20 | mean tumor volume ([1]; 0.27 mg/kg, Day 119): 58 ± 39 | mean tumor volume ([1]; 0.27 mg/kg, Day 126): 88 ± 58 | mean tumor volume ([1]; 0.27 mg/kg, Day 133): 159 ± 103 | mean tumor volume ([1]; 0.27 mg/kg, Day 141): 181 ± 118 | mean tumor volume ([1]; 0.27 mg/kg, Day 147): 219 ± 142 | mean tumor volume ([1]; 0.27 mg/kg, Day 154): 279 ± 176 | mean tumor volume ([1]; 0.27 mg/kg, Day 161): 293 ± 172 | mean tumor volume ([1]; 0.27 mg/kg, Day 168): 293 ± 172 | mean tumor volume ([1]; 0.27 mg/kg, Day 175): 306 ± 170 | mean tumor volume ([1]; 0.27 mg/kg, Day 182): 308 ± 169 | mean tumor volume ([1]; 0.27 mg/kg, Day 189): 317 ± 168 | mean tumor volume ([1]; 0.27 mg/kg, Day 197): 429 ± 192 | mean tumor volume ([1]; 0.27 mg/kg, Day 204): 445 ± 200 | Regression (TTP, Days) or % TGI ([2]; 0.018 mg/kg, BR56 PDX): No activity | tumor volume ± SEM ([2]; 0.09 mg/kg, Day 4): 150 ± 10 mm^3 | tumor volume ± SEM ([2]; 0.09 mg/kg, Day 11): 268 ± 32 mm^3 | tumor volume ± SEM ([2]; 0.09 mg/kg, Day 18): 251 ± 25 mm^3 | tumor volume ± SEM ([2]; 0.09 mg/kg, Day 25): 286 ± 39 mm^3 | tumor volume ± SEM ([2]; 0.09 mg/kg, Day 40): 341 ± 47 mm^3 | tumor volume ± SEM ([2]; 0.09 mg/kg, Day 47): 442 ± 66 mm^3 | tumor volume ± SEM ([2]; 0.09 mg/kg, Day 54): 635 ± 94 mm^3 | tumor volume ± SEM ([2]; 0.09 mg/kg, Day 60): 816 ± 64 mm^3 | % TGI ([2]; 0.09 mg/kg, BR56 PDX): 56% TGI | tumor volume ± SEM ([2]; 0.09 mg/kg, Day 0): 148 ± 14 mm^3 | tumor volume ± SEM ([2]; 0.09 mg/kg, Day 33): 291 ± 45 mm^3 | tumor volume ± SEM ([2]; 0.27 mg/kg, Day 4): 151 ± 14 mm^3 | tumor volume ± SEM ([2]; 0.27 mg/kg, Day 11): 170 ± 21 mm^3 | tumor volume ± SEM ([2]; 0.27 mg/kg, Day 18): 90 ± 10 mm^3 | tumor volume ± SEM ([2]; 0.27 mg/kg, Day 25): 42 ± 13 mm^3 | tumor volume ± SEM ([2]; 0.27 mg/kg, Day 40): 0 ± 0 mm^3 | tumor volume ± SEM ([2]; 0.27 mg/kg, Day 47): 0 ± 0 mm^3 | tumor volume ± SEM ([2]; 0.27 mg/kg, Day 54): 11 ± 8 mm^3 | tumor volume ± SEM ([2]; 0.27 mg/kg, Day 60): 48 ± 17 mm^3 | tumor volume ± SEM ([2]; 0.27 mg/kg, Day 95): 363 ± 100 mm^3 | tumor volume ± SEM ([2]; 0.27 mg/kg, Day 109): 714 ± 198 mm^3 | Regression (TTP, Days) ([2]; 0.27 mg/kg, BR56 PDX): Regression (60) Days | tumor volume ± SEM ([2]; 0.27 mg/kg, Day 0): 141 ± 12 mm^3 | tumor volume ± SEM ([2]; 0.27 mg/kg, Day 33): 14 ± 4 mm^3 | tumor volume ± SEM ([2]; 0.27 mg/kg, Day 67): 75 ± 29 mm^3 | tumor volume ± SEM ([2]; 0.27 mg/kg, Day 74): 155 ± 51 mm^3 | tumor volume ± SEM ([2]; 0.27 mg/kg, Day 81): 207 ± 56 mm^3 | tumor volume ± SEM ([2]; 0.27 mg/kg, Day 88): 270 ± 78 mm^3 | tumor volume ± SEM ([2]; 0.27 mg/kg, Day 102): 530 ± 143 mm^3 | % TGI (BR25): 27% TGI
